Laboratory results: paper PMC4336329 (PLoS ONE, 2015)
About 14,000 (4.5%) of roughly 310,000 compounds showed an effect of 50% or more. Effects have a minus sign here. The list shows a part of the results.

biological target: human ether-à-go-go-related gene (hERG) potassium channel (human, UniProt Q12809); test: primary screen, population patch clamp on CHO cells stably expressing hERG
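Further: peak tail current of the secondary pulse compared with the same well before compound.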

Sequence of human ether-à-go-go-related gene (hERG) potassium channel (Q12809 whole entry, looked up): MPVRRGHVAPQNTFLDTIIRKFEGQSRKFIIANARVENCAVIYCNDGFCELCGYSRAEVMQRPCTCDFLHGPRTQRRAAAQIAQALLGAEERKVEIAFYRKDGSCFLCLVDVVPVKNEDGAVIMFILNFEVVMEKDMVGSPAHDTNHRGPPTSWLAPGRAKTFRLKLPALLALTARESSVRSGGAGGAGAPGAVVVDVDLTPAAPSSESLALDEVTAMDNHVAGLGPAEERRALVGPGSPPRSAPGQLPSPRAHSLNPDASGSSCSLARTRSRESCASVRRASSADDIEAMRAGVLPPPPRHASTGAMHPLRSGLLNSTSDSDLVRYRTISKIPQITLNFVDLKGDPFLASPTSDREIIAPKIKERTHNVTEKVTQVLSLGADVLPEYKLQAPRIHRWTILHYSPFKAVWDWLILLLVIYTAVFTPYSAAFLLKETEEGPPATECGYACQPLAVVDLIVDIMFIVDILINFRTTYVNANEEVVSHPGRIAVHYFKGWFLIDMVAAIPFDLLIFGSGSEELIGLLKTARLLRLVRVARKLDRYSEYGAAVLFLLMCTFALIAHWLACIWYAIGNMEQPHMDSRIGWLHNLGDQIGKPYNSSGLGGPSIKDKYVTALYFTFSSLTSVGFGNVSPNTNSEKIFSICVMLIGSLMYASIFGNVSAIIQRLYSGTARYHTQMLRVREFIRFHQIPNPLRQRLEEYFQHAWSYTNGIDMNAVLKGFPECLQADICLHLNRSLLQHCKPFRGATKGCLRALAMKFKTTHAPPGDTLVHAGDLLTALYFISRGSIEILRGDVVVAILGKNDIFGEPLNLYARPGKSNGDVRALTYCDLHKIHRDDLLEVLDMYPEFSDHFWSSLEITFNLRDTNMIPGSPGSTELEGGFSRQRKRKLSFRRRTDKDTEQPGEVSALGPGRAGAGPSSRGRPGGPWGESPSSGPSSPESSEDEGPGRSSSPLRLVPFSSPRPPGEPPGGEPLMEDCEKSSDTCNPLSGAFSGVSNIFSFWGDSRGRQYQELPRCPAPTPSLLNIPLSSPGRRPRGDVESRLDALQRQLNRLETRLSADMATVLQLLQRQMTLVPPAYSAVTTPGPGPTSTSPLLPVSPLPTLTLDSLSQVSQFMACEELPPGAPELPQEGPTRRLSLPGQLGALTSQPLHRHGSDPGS

SMILES | hERG current change (%, negative = inhibition) at 10uM [%]
N#C/C(C(N)=O)=C1/SC(Cc2ccc(F)cc2)C(=O)N1c1ccccc1 (centres unmarked) | 10.9
CC1CCCN(C(=O)c2nn(C)c3c2CS(=O)(=O)c2ccccc2-3)C1 (centres unmarked) | -23.4
O=C(CSc1nnc(CNC(=O)C23CC4CC(CC(C4)C2)C3)n1-c1ccc(F)cc1)Nc1ccccc1 | 9.59
O=C(NCCCN1CCOCC1)C(=O)NCC1OCCN1S(=O)(=O)c1ccc(F)cc1 (centres unmarked) | -10.2
COC(=O)c1ccc(CSc2nc(N3CCOCC3)c3c(c2C#N)CC(C)(C)OC3)o1 | -24.8
CCCC(O)(CCC)C(=O)NN(C(=O)CCl)c1cccc(C)c1 | -0.728
CN(C)C(=O)c1cc(C(=O)c2ccccc2F)c[nH]1 | 17.2
CCN1C(=O)[C@@H]2[C@H](C1=O)[C@@H]1C(=O)Nc3ccccc3C(=O)N1[C@@H]2c1cccc(OC)c1 | -31.1
CC(=O)Nc1ccc(N(C(=O)CNC(=O)c2ccco2)C(C(=O)NCC2CCCO2)c2ccccc2)cc1 (centres unmarked) | 3.74
O=C(CC1C(=O)N(c2ccccc2)C(=S)N1c1ccccc1)c1ccccc1 (centres unmarked) | -4.04
COc1ccc(CCNc2nncc(=O)[nH]2)cc1OC | 2.16
Cc1ccc(S(=O)(=O)NC(=NCC(=O)O)c2ccc(F)cc2)cc1 | 17.6
CN(CCOc1ccc(Cl)cc1)c1ccc(S(=O)(=O)N2CCCCC2)cn1 | -10.3
Oc1cccc2ccc(/C=C/c3ccc(Br)s3)nc12 | 4.6
CCOC(=O)/C=C/C(=O)OCC(=O)Nc1ccc(Cl)cn1 | 1.69
COc1cc2nc(SCc3ccc(Cl)cc3Cl)n(Cc3cccs3)c(=N)c2cc1OC | 10.5
CCC1(C)Cc2ccccc2-c2nc(SC)[nH]c(=O)c21 (centres unmarked) | 23.8
CCOC(=O)NC(Nc1ncccn1)(C(F)(F)F)C(F)(F)F | 4.78
CSC1=N/C(=C\c2c(F)cccc2Cl)C(=O)S1 | -17.5
CCOC(=O)COc1nc(-c2ccccc2)cc(-c2ccco2)c1C#N | 10.1
CCOc1ccccc1N1CCN(C(=O)c2cc3c(s2)CCC3)CC1 | -17.5
COc1ccc(OC(=O)c2cccnc2)cc1 | 6.06

SMILES | hERG current change (%, negative = inhibition) at 10uM [%]
COc1cc(S(=O)(=O)N2CCN(Cc3ccccc3)CC2)ccc1Br | -7.09
C/C(=N\NC(=O)Cc1ccc(Cl)c(Cl)c1)c1cccnc1 | -12.9
Cc1nn(C(C)C(=O)NCC2CCCO2)c(=O)c2c1sc1ccccc12 (centres unmarked) | -4.42
CC(=O)N1CCN(c2ccc([N+](=O)[O-])c(-n3nc(C)cc3C)c2)CC1 | -51.9
CCN(c1ccccc1)S(=O)(=O)c1ccc(NC(=O)c2nc(S(C)(=O)=O)ncc2Cl)cc1 | 8.95
Cc1ccc(-n2ccnc2SCC(=O)O)cc1C | -4.84
CSc1nc(-c2ccccc2)nn1S(=O)(=O)c1ccccc1 | 7
COC(=O)C1=C(c2cccc(OCc3ccccc3)c2)C[C@@H]2CC[C@H]1N2C(=O)NC1CCN(Cc2ccccc2)CC1 | -40.2
CCC(=O)N1CCc2cc(Br)cc(S(=O)(=O)N3CCCC(C(=O)NC(C)(C)C)C3)c21 (centres unmarked) | -13.1
Clc1ccc2c(c1)-c1[nH]ncc1CS2 | -29.3
COC(=O)c1c(NC(=O)Cc2ccc(OC)c(S(=O)(=O)N3CCOCC3)c2)sc(C)c1C | -1.18
COc1ccc2cc3cc(C(=O)NC4CC4)sc3nc2c1 | 10.6
Cc1ccc(OCC(=O)Nc2ccc(N3CCN(S(C)(=O)=O)CC3)cc2)cc1 | 17.4
C=C(C)Cn1c(SCCN2CCOCC2)nc2c1c(=O)[nH]c(=O)n2C | -4.61
Cn1c(=O)c2c(nc(SCc3ccc(C(=O)O)cc3)n2C)n(C)c1=O | 12.6
COc1ccc(S(=O)(=O)NCC2CCCO2)cc1Cl (centres unmarked) | -3.2
COc1cccc(C2C(C(N)=O)=C(C)Nc3nc(CCCO)nn32)c1 (centres unmarked) | 22.2
Cc1cc(NC(=O)Nc2ccc(OCc3ccccc3)cc2)n(C)n1 | 23.8
CC1(C)CC(=O)C2=C(C1)OC(N)=C([N+](=O)[O-])C2c1ccc(C#N)s1 (centres unmarked) | -37.1
Cc1noc(C)c1C(=O)OCC(=O)Nc1cc(Cl)ccc1Oc1ccccc1 | -13.9
Cc1cccc(NC(=O)CCn2c(=O)oc3ccccc32)c1 | 8.31
COc1ccc(/C=C/C(=O)c2c(C)cc(C)[nH]c2=O)c2ccccc12 | 8.8

SMILES | hERG current change (%, negative = inhibition) at 10uM [%]
COCCN(C(=O)COC(=O)CSc1ccccc1)c1c(N)n(Cc2ccccc2)c(=O)[nH]c1=O | 11.5
Cc1nc2cc(NC(=O)NC(C)(C)C)ccc2n1C | 8.68
Cc1ccc(C)c(NC(=O)NNC(=O)c2ccc3ccccc3c2O)c1 | 11.4
COc1ccc(NC(=O)Cc2csc(NC(=O)Nc3ccccc3OC)n2)c(OC)c1 | -4.63
CC(C)[NH+]1CCC2(CC1)C(C#N)=C(N)NC([S-])=C2C#N | -4.59
Cc1cc(=O)[nH]c(-c2ccccc2O)n1 | -14.2
COc1ccc2cc3cc(C(=O)N4CCCCC4C)oc3nc2c1 (centres unmarked) | -9.8
C#CCOCCOCCOCCNc1nc(N2CCN(C(=O)Cn3cc(CCC[NH+]=C(N)N)nn3)CC2)nc(N2CCN(C(=O)[C@H](C(C)C)n3cc(CCO)nn3)CC2)n1.[Cl-] | 11.3
O=C(NC1(C(F)(F)F)C(=O)Nc2c1c(=O)[nH]c(=O)n2-c1ccccc1)c1ccncc1 (centres unmarked) | 3.53
CCN(CC(=O)N(CC(C)C)c1c(N)n(CC(C)C)c(=O)[nH]c1=O)Cc1nc2ccccc2c(=O)[nH]1 | 14.1
COc1cc2c(cc1OC)C(C)=NCC2 | 8.28
CCCC(=O)Nc1nnc(SCC(=O)NCc2cccs2)s1 | 8.39
C=CCC1Cc2c(Br)cccc2C(CC=C)N1 (centres unmarked) | -7.3
Cc1ccc(N2CCN(C(=S)c3ccc(-c4cccc([N+](=O)[O-])c4)o3)CC2)cc1 | 13.8
COc1ccccc1NC(=O)c1cc(OC)c(OC)cc1[N+](=O)[O-] | 4.44
COc1ccccc1-c1coc2cc(OC(=O)N3CCOCC3)ccc2c1=O | -3.27
c1cncc(-c2nn3c(Cn4cnc5ccccc54)nnc3s2)c1 | -19.8
Cc1ccc(-c2nc(CS(=O)CC(=O)NCCN3CCCC3)c(C)o2)cc1 (centres unmarked) | -5.74
CCOc1ccccc1N1CCN(C(=O)NCc2ccc(Cl)cc2)CC1 | -14.6
CCOc1ccc(NC(=O)c2ccc(CSc3nnc(C)s3)cc2)cc1 | 2.93
COc1ccc(Cl)c2sc(N(Cc3cccnc3)C(C)=O)nc12 | 13.2
O=C(CN1CCN(CC(=O)Nc2ccc(F)cc2)CC1)NCC1(N2CCOCC2)CCCCC1 | -73.4

SMILES | hERG current change (%, negative = inhibition) at 10uM [%]
CCOC(=O)C1=C(c2ccccc2)OC(N)=C(C#N)C1c1ccncc1 (centres unmarked) | -11.3
CC(C)CCN1CCN(Cc2cccc3nonc23)CC1CCO (centres unmarked) | -16.7
CC(NC(=O)CSc1nc2ccccc2n1C)c1ccccc1 (centres unmarked) | 19.8
Cc1nn(Cc2cccc(C(=O)N3N=C(C(F)F)CC3(O)C(F)F)c2)c(C)c1[N+](=O)[O-] (centres unmarked) | -19.6
CC(=O)Nc1ccccc1Nc1cc(C#N)c(C#N)cc1[N+](=O)[O-] | 0.808
COc1cc2c(cc1OC)C(c1ccc(Cl)cc1)=NCC2 | -43.6
CCN(C(=O)CN1CCN(S(=O)(=O)c2ccccc2C(F)(F)F)CC1)c1c(N)n(Cc2ccccc2)c(=O)[nH]c1=O | 13.6
N#CCCn1cc(C(=O)Nc2ccccc2Br)c(-c2ccc([N+](=O)[O-])cc2)n1 | -46.9
CC(=O)c1cn(C2OC(CO)C3OC(C)(C)OC32)c(=O)n(C)c1=O (centres unmarked) | 5.02
OC(CN1CCCCC1)Cn1c2ccc(Cl)cc2c2cc(Cl)ccc21 (centres unmarked) | -29.6
CCNC(=S)N(Cc1cccs1)Cc1cc2cc(OCC)ccc2[nH]c1=O | -5.5
Cc1nnsc1C(=O)NC(C)C12CC3CC(CC(C3)C1)C2 (centres unmarked) | 7.88
COc1ccccc1NC(=O)CN1CCCCCC1 | 8.66
C/C(=N\NC(=O)c1nn(C)cc1Br)c1cccc(NC(=O)C(C)(C)C)c1 | 4.48
COc1ccccc1Oc1ccc(S(=O)(=O)NCc2ccccn2)cc1 | 4
Cc1ccc(S(=O)(=O)NCCC(=O)NC2CC2)cc1 | 15.7
CC(C)CN(C)C(=O)CCc1nnc(Cc2cccc(C(F)(F)F)c2)o1 | -4.9
O=C(NCC(=O)N1CCOCC1)c1ccc(Br)cc1 | -0.151
O=C(O)c1ccc(CNS(=O)(=O)c2ccc(Oc3ccccc3Cl)cc2)cc1 | 11.3
CCN(CC)S(=O)(=O)c1cc(C(=O)Nc2ccccc2C(=O)O)ccc1OC | 19.2
